Assay results from the supplement of paper PMC11125491.
± gives the standard deviation of the averaged measurements. Growth of baker's yeast expressing single-residue variants of Pneumocystis jirovecii dihydrofolate reductase in 8.8 or 44 µM methotrexate (about 75% and 90% inhibition of the wild type). Selection coefficient per generation; 0 = like wild type, above 0 = less sensitive, below 0 = more sensitive or loss of function. No active / inactive call per row; the paper calls resistant above 0.220 (8.8 µM) or 0.243 (44 µM) together with a significance test. At 44 µM about 15% of codons end with one read or none, so the lowest values are floors (replicate rank correlation 0.74; 0.94 at 8.8 µM).

B1: UniProt A0EPZ9; numbered along this chain (parent)
chain: MDWQKSLTLIVALTLSRGIGLKNDLPWKLKSDMMFFSRVTSGLLVTRSTGQMNVVLMGRKTWESLPAHSRPLKNRINVVISRQEVLDLGGGAYHARSLDDALALLSQIYDSTSKIQLNRVFVIGGGELCKAAMEHSRLNRIIATVIHNEVDCDVFFPIDFRSSQSCLPWRKQDHSVLEAWVGSKVPQGKINENGFIYEFEMWIRDI

Variants of: B1
Assay: selection coefficient against synonymous wild-type codons (log2 per generation); higher = faster growth than wild type
Conditions: with Saccharomyces cerevisiae carrying the variant on a plasmid
Description: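 Pooled growth of yeast carrying single-residue variants of P. jirovecii dihydrofolate reductase (own DFR1 gene intact), two passages at 30 °C, three cultures, sequenced before and after. Codons with under 15 starting reads are left out; codons of one change are averaged.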

| Variant | selection coefficient against synonymous wild-type codons (log2) (methotrexate 8.8 µM) | selection coefficient against synonymous wild-type codons (log2) (methotrexate 44 µM) |
| --- | --- | --- |
| C129I | 0.54 ± 0.027 | 0.776 ± 0.062 |
| C129K | -0.213 ± 0.095 | -0.116 ± 0.16 |
| C129L | 0.401 ± 0.037 | 0.597 ± 0.15 |
| C129M | 0.17 ± 0.025 | 0.201 ± 0.02 |
| C129N | 0.334 ± 0.024 | 0.53 ± 0.056 |
| C129P | 0.118 ± 0.022 | 0.27 ± 0.065 |
| C129Q | 0.588 ± 0.013 | 0.879 ± 0.068 |
| C129R | -0.302 ± 0.15 | -0.00266 ± 0.17 |
| C129S | -0.043 ± 0.028 | 0.0283 ± 0.059 |
| C129T | 0.539 ± 0.04 | 0.828 ± 0.045 |
| C129V | 0.585 ± 0.03 | 0.885 ± 0.062 |
| C129W | 0.454 ± 0.021 | 0.717 ± 0.038 |
| C129Y | 0.718 ± 0.028 | 1.16 ± 0.067 |
| K130A | -0.173 ± 0.039 | -0.165 ± 0.15 |
| K130C | -0.393 ± 0.094 | -0.324 ± 0.13 |
| K130D | -0.338 ± 0.046 | -0.427 ± 0.04 |
| K130E | -0.213 ± 0.041 | -0.122 ± 0.16 |
| K130F | -0.336 ± 0.031 | -0.29 ± 0.17 |
| K130G | -0.363 ± 0.05 | -0.301 ± 0.1 |
| K130H | -0.233 ± 0.075 | -0.249 ± 0.13 |
| K130I | -0.341 ± 0.026 | -0.233 ± 0.17 |
| K130L | -0.23 ± 0.05 | -0.177 ± 0.14 |
| K130M | -0.174 ± 0.022 | -0.0879 ± 0.1 |
| K130N | -0.176 ± 0.047 | -0.131 ± 0.077 |

| Variant | selection coefficient against synonymous wild-type codons (log2) (methotrexate 8.8 µM) | selection coefficient against synonymous wild-type codons (log2) (methotrexate 44 µM) |
| --- | --- | --- |
| K130P | -0.29 ± 0.17 | -0.116 ± 0.14 |
| K130Q | -0.143 ± 0.0069 | -0.223 ± 0.21 |
| K130R | -0.035 ± 0.034 | 0.024 ± 0.073 |
| K130S | -0.203 ± 0.082 | -0.0932 ± 0.16 |
| K130T | -0.213 ± 0.044 | -0.124 ± 0.095 |
| K130V | -0.358 ± 0.014 | -0.281 ± 0.046 |
| K130W | -0.337 ± 0.088 | -0.321 ± 0.19 |
| K130Y | -0.336 ± 0.13 | -0.113 ± 0.05 |
| A131C | -0.29 ± 0.053 | -0.273 ± 0.16 |
| A131D | -0.183 ± 0.079 | -0.238 ± 0.088 |
| A131E | 0.00489 ± 0.029 | -0.0607 ± 0.029 |
| A131F | -0.359 ± 0.053 | -0.308 ± 0.045 |
| A131G | -0.519 ± 0.03 | -0.345 ± 0.12 |
| A131H | -0.168 ± 0.008 | -0.12 ± 0.19 |
| A131I | -0.296 ± 0.066 | -0.322 ± 0.051 |
| A131K | -0.154 ± 0.015 | -0.269 ± 0.16 |
| A131L | -0.294 ± 0.066 | -0.258 ± 0.09 |
| A131M | -0.19 ± 0.048 | -0.121 ± 0.068 |
| A131N | -0.202 ± 0.047 | 0.0628 ± 0.48 |
| A131P | -0.531 ± 0.16 | -0.289 ± 0.085 |
| A131Q | 0.0609 ± 0.025 | 0.0353 ± 0.092 |
| A131R | -0.23 ± 0.055 | -0.239 ± 0.12 |
| A131S | -0.113 ± 0.053 | -0.129 ± 0.17 |
| A131T | -0.11 ± 0.037 | -0.0384 ± 0.12 |

| Variant | selection coefficient against synonymous wild-type codons (log2) (methotrexate 8.8 µM) | selection coefficient against synonymous wild-type codons (log2) (methotrexate 44 µM) |
| --- | --- | --- |
| A131V | -0.226 ± 0.05 | -0.239 ± 0.12 |
| A131W | -0.404 ± 0.073 | -0.243 ± 0.14 |
| A131Y | -0.338 ± 0.037 | -0.322 ± 0.099 |
| A132C | -0.181 ± 0.0097 | -0.346 ± 0.054 |
| A132D | -0.286 ± 0.022 | -0.0539 ± 0.053 |
| A132E | -0.682 ± 0.054 | -0.446 ± 0.059 |
| A132F | -0.366 ± 0.065 | -0.274 ± 0.16 |
| A132G | -0.599 ± 0.14 | -0.359 ± 0.084 |
| A132H | -0.733 ± 0.014 | -0.186 ± 0.096 |
| A132I | -0.0737 ± 0.051 | -0.111 ± 0.12 |
| A132K | -0.687 ± 0.1 | -0.314 ± 0.049 |
| A132L | -0.136 ± 0.055 | -0.179 ± 0.13 |
| A132M | -0.278 ± 0.039 | -0.255 ± 0.064 |
| A132N | -0.744 ± 0.054 | -0.24 ± 0.023 |
| A132P | -0.608 ± 0.15 | -0.225 ± 0.059 |
| A132Q | -0.818 ± 0.14 | -0.383 ± 0.044 |
| A132R | -0.686 ± 0.11 | -0.198 ± 0.13 |
| A132S | -0.469 ± 0.11 | -0.27 ± 0.15 |
| A132T | -0.126 ± 0.044 | -0.0532 ± 0.17 |
| A132V | 0.0796 ± 0.028 | 0.144 ± 0.038 |
| A132W | -0.342 ± 0.047 | -0.422 ± 0.056 |
| A132Y | -0.566 ± 0.14 | -0.392 ± 0.029 |
| M133A | 0.0446 ± 0.044 | 0.0446 ± 0.15 |
| M133C | -0.127 ± 0.029 | -0.182 ± 0.052 |

| Variant | selection coefficient against synonymous wild-type codons (log2) (methotrexate 8.8 µM) | selection coefficient against synonymous wild-type codons (log2) (methotrexate 44 µM) |
| --- | --- | --- |
| M133D | -0.651 ± 0.16 | -0.277 ± 0.066 |
| M133E | -0.433 ± 0.13 | -0.314 ± 0.11 |
| M133F | 0.125 ± 0.011 | 0.232 ± 0.034 |
| M133G | -0.416 ± 0.091 | -0.291 ± 0.13 |
| M133H | -0.521 ± 0.096 | -0.351 ± 0.07 |
| M133I | -0.0738 ± 0.028 | -0.0778 ± 0.16 |
| M133K | -0.358 ± 0.044 | 0.0803 ± 0.35 |
| M133L | 0.067 ± 0.042 | 0.0693 ± 0.06 |
| M133N | -0.45 ± 0.076 | -0.262 ± 0.028 |
| M133P | -0.678 ± 0.12 | -0.209 ± 0.097 |
| M133Q | -0.348 ± 0.083 | -0.11 ± 0.078 |
| M133R | -0.346 ± 0.074 | -0.255 ± 0.1 |
| M133S | -0.151 ± 0.052 | -0.186 ± 0.12 |
| M133T | -0.307 ± 0.1 | -0.145 ± 0.047 |
| M133V | -0.129 ± 0.038 | -0.11 ± 0.15 |
| M133W | -0.0911 ± 0.034 | -0.0361 ± 0.13 |
| M133Y | -0.0908 ± 0.07 | 0.0188 ± 0.24 |
| E134A | -0.0686 ± 0.03 | -0.0264 ± 0.14 |
| E134C | -0.142 ± 0.022 | -0.153 ± 0.077 |
| E134D | -0.117 ± 0.027 | -0.216 ± 0.054 |
| E134F | -0.246 ± 0.023 | -0.189 ± 0.12 |
| E134G | -0.164 ± 0.036 | -0.123 ± 0.057 |
| E134I | -0.338 ± 0.059 | -0.158 ± 0.14 |
| E134K | -0.0473 ± 0.013 | -0.0953 ± 0.11 |

| Variant | selection coefficient against synonymous wild-type codons (log2) (methotrexate 8.8 µM) | selection coefficient against synonymous wild-type codons (log2) (methotrexate 44 µM) |
| --- | --- | --- |
| E134L | -0.189 ± 0.043 | -0.106 ± 0.066 |
| E134M | -0.125 ± 0.015 | -0.047 ± 0.03 |
| E134N | -0.0481 ± 0.028 | 0.0316 ± 0.094 |
| E134Q | 0.0173 ± 0.013 | -0.0528 ± 0.11 |
| E134R | -0.0884 ± 0.045 | -0.129 ± 0.13 |
| E134S | -0.102 ± 0.037 | -0.0521 ± 0.078 |
| E134T | -0.102 ± 0.035 | 0.000588 ± 0.063 |
| E134V | -0.219 ± 0.047 | -0.35 ± 0.1 |
| E134W | -0.537 ± 0.022 | -0.266 ± 0.14 |
| E134Y | -0.238 ± 0.036 | -0.332 ± 0.075 |
| H135A | -0.307 ± 0.062 | -0.317 ± 0.1 |
| H135C | -0.0289 ± 0.055 | -0.101 ± 0.09 |
| H135D | 0.0676 ± 0.033 | 0.215 ± 0.08 |
| H135E | -0.314 ± 0.028 | -0.314 ± 0.16 |
| H135F | -0.257 ± 0.011 | -0.175 ± 0.033 |
| H135G | -0.291 ± 0.05 | -0.231 ± 0.12 |
| H135I | -0.361 ± 0.026 | -0.206 ± 0.057 |
| H135K | -0.302 ± 0.038 | -0.303 ± 0.036 |
| H135L | -0.179 ± 0.079 | -0.179 ± 0.19 |
| H135M | -0.201 ± 0.026 | 0.0931 ± 0.42 |
